# Test results from publication PMC4242493.
# The list shows a part of the results. The list includes weakly bound sequences.
# Biological target: MaxL homodimer (UniProt P61244)
# Assay: universal protein-binding microarray (PBM)
# Settings: PBS-based mixture, 10 nM His-tagged protein dimer, 2% milk, 200 ng/uL BSA, 50 ng/uL salmon testes DNA, 0.02% TX-100; detection with Alexa 488 anti-His …; high values mean tight binding; most listed sequences are background and not binding sites; double strand, one strand shown
# UniProt P61244, sequence (P61244 whole entry): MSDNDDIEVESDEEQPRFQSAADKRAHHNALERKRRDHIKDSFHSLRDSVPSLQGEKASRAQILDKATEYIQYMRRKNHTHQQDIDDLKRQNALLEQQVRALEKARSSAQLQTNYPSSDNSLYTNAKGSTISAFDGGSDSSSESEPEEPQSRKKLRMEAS
row,Sequence,binding signal (normalized occupancy)
1,GGCGCTCA,0.0725
2,TTAATCAA,0.0765
3,ACCTGACG,0.0743
4,GATTAGGC,0.073
5,TACAAAGA,0.0763
6,AAGGGGAG,0.0717
7,AGATCGGC,0.0695
8,CATTAGGG,0.0803
9,CAGACAGA,0.0748
10,TCATGCGA,0.0877
11,AAAAGCAC,0.0792
12,CGGCTAAA,0.0733
13,GGCGTCCC,0.0654
14,CCTCGGCC,0.0694
15,ATGGCTCC,0.0818
16,ACCTGATC,0.085
17,ATCTAAGG,0.0748
18,ATTAAAGC,0.0749
19,TCGTCGCA,0.0708
20,CCATGGAC,0.0837
21,AATCCTGG,0.07
22,AACACTTG,0.0757
23,ACTGGTCT,0.071
24,GAATTGGC,0.0709
25,AGGTATAA,0.081

row,Sequence,binding signal (normalized occupancy)
1,GACAGACA,0.0741
2,GAGTAACA,0.0759
3,TCCAGAGA,0.0702
4,CCATATAG,0.087
5,CGGAACCG,0.0666
6,ATAACCTA,0.0779
7,GCCAAGAC,0.0722
8,CTGTGACA,0.0778
9,ATGTATGA,0.0896
10,AATGTGGT,0.0943
11,ACGAGAAT,0.0823
12,ACGTGCCT,0.0959
13,AAAGTCTG,0.0692
14,CGATTCCC,0.0757
15,TAGGGTGA,0.076
16,ATTATTTG,0.0793
17,CCCCTAGG,0.0698
18,CTGTAGCA,0.0765
19,CGGTTGGC,0.0737
20,CCATCAAG,0.0744
21,CCCCAACG,0.0741
22,AAGTGATG,0.0756
23,CAGACAAA,0.0757
24,ATCTGACG,0.0758
25,AAGCAATC,0.0752

row,Sequence,binding signal (normalized occupancy)
1,CTTCTCGA,0.0732
2,ACTCCGTG,0.0724
3,CATGCGGA,0.126
4,CCCCTCGG,0.0692
5,ATGGTTAG,0.0784
6,AATGTAAT,0.0765
7,CTTTAACC,0.0757
8,CCATATTC,0.085
9,TACTTCAA,0.0827
10,CGCCTTAA,0.0761
11,ACGAGTTA,0.0814
12,ACAGGAGC,0.0731
13,GGGCAAAC,0.0702
14,CCAGTAAA,0.0769
15,AATGTACG,0.0761
16,TTAAATAA,0.0725
17,ACTGAGCC,0.0708
18,CCGTTCGA,0.0695
19,AGGATCGG,0.0726
20,CGAGCACC,0.0724
21,ACAGTAAG,0.0785
22,CGTACTTC,0.0758
23,CATATGGG,0.103
24,CAGGTTCG,0.0717
25,CCACACGA,0.0959

row,Sequence,binding signal (normalized occupancy)
1,CTATGGAC,0.0754
2,GGATACCC,0.0788
3,CGGGATTA,0.0803
4,CTTCGCTC,0.0654
5,CGGATAAC,0.0734
6,AGGAGCAT,0.0811
7,CGGTTTAC,0.0706
8,GAGATCGC,0.0757
9,CCAAATGA,0.084
10,AAGGCCGA,0.0677
11,ATTTTCAC,0.0778
12,CTAACTTC,0.0674
13,ACTATGGC,0.0742
14,CACCTGCC,0.0849
15,CAACTCTC,0.0734
16,AGTCATTC,0.077
17,ACTTCGCA,0.0712
18,GTACCTAA,0.0754
19,AATTTTGT,0.0774
20,CCCTTGGA,0.0711
21,ACCTCTCT,0.0709
22,AACTACGT,0.0709
23,CGGACGGC,0.0679
24,ATTCAAGG,0.0807
25,CCTTCCCG,0.0723

row,Sequence,binding signal (normalized occupancy)
1,GCCGCACA,0.0809
2,GTTTATCA,0.0816
3,CAGAGATG,0.0757
4,AGTTATGA,0.0764
5,AACTGCAT,0.0812
6,ACGCTTAT,0.0836
7,ACCATTAT,0.0776
8,CCCATGCA,0.0973
9,GAAAGTGC,0.0697
10,GTACTTTA,0.0737
11,ACGACGCA,0.0777
12,GAACAGGA,0.0687
13,ACGCAATG,0.0807
14,CGCCCGTA,0.0686
15,ATTGCCCG,0.0725
16,GCCACAGA,0.074
17,GAATTGAA,0.0748
18,CCCACTAG,0.0799
19,AAGTCAAT,0.0734
20,GCTGCGAC,0.0673
21,TGGAGTAA,0.0759
22,ACTAGGGG,0.0739
23,TCACTAGA,0.0761
24,CGGCCGAA,0.0638
25,AGTGACTC,0.0781

row,Sequence,binding signal (normalized occupancy)
1,CAATCTGG,0.0721
2,CTGGTGTC,0.0735
3,GGCAAAAA,0.0715
4,GGTGCGGA,0.0762
5,CTAGCACA,0.0827
6,CCTACTTC,0.0742
7,TGTCTGAA,0.0757
8,TAGCCGCA,0.0715
9,CACTCCAA,0.0714
10,AGCAGCCG,0.0667
11,GACGCTAC,0.0742
12,AATTGAAA,0.0772
13,ATGCGTAG,0.0832
14,GAAACTAA,0.0734
15,CATGTTCA,0.0945
16,AATTAGAC,0.0741
17,CACCCGAC,0.0792
18,AACGTCGT,0.0757
19,AGCCAACC,0.0796
20,ATGTTCTG,0.0788
21,CGTGGCTC,0.0897
22,ACGGCAAT,0.0756
23,ACATGTAC,0.0958
24,CTACGACC,0.0759
25,GCCATTTA,0.0786

row,Sequence,binding signal (normalized occupancy)
1,ATCTAAAT,0.0782
2,GAAAGAAC,0.072
3,GTTAGCTA,0.0688
4,AAGTAAAG,0.0722
5,ACAACCCG,0.0778
6,ACACACCG,0.0873
7,ATGTTTCC,0.0815
8,GTGCAATA,0.0814
9,ATAAAGTA,0.0811
10,CCCTGATA,0.0785
11,ACGGATTG,0.0707
12,AGATACCA,0.0785
13,ATTATAAC,0.0853
14,GAAGGCGA,0.0722
15,ACGCGCAC,0.0905
16,CCGAGAAC,0.072
17,AGTCTTTA,0.0693
18,CAACTTAC,0.0722
19,TCCACGCA,0.0885
20,AAACTATC,0.0729
21,CTTGTTAA,0.0714
22,CCCAGTCC,0.0735
23,GAATATGC,0.0796
24,GTGAAATA,0.0831
25,ATCAAGCC,0.0768

row,Sequence,binding signal (normalized occupancy)
1,AGCGTCTA,0.074
2,CAACTGAC,0.0728
3,ACGTACCC,0.0848
4,CCCTAGGG,0.0737
5,GCCCCAGA,0.0694
6,AAAATGGA,0.077
7,CTCCTGCC,0.0678
8,AGTTAAAC,0.0711
9,GACAAAAC,0.0749
10,CTCAGAAA,0.0748
11,AGACGGGC,0.0682
12,AGCGCAGC,0.0625
13,CACTTAGG,0.0772
14,AGAATAGC,0.0772
15,CACGCCTA,0.0938
16,ACGTGCCC,0.0948
17,CCGTGTTC,0.0725
18,GAAGACCC,0.0707
19,AGCACTAA,0.0729
20,CCGTTTCG,0.0661
21,GGGTTAGA,0.084
22,CCGATCAC,0.0768
23,CTTCAGTA,0.0695
24,ATACGCTC,0.0788
25,CCAAGCCG,0.074

row,Sequence,binding signal (normalized occupancy)
1,GGCGCCTA,0.07
2,GCCCGGGA,0.0647
3,AGGCGTAG,0.0687
4,AGAGCTCA,0.0694
5,CGAAGGGC,0.0673
6,CGACTACG,0.0719
7,CCTGGATC,0.0772
8,CTCCCGCC,0.0726
9,GAATATCC,0.0768
10,AAGTCATT,0.0758
11,TGTCAACA,0.0819
12,GAAGCTAC,0.0686
13,GTTGCCCA,0.0762
14,AGGGACGG,0.0686
15,GCTGTACA,0.0814
16,ACGGTCGG,0.0723
17,CTCACATA,0.0818
18,CTGACCGA,0.0725
19,ATTCGCTC,0.0757
20,CCCCTTAA,0.0759
21,CTGGACAC,0.0759
22,TATAGCCA,0.0847
23,ATGAATCG,0.0836
24,AAGACGTA,0.074
25,CTCATCTC,0.0785

row,Sequence,binding signal (normalized occupancy)
1,GATAGATC,0.0736
2,CGTCTAGA,0.0685
3,CGTCATCC,0.0813
4,GATATGAC,0.0791
5,AATTGTAG,0.0748
6,CATGTTCG,0.0882
7,AGCTCCAG,0.0712
8,TATGTGGA,0.0827
9,ATTGAGCA,0.0777
10,GGACTTAA,0.0725
11,GATCGCAC,0.0824
12,CACGGTTA,0.0759
13,GCGCGCAA,0.0753
14,TAATAGCA,0.0774
15,ACTTCTTG,0.0738
16,ATGCGTAA,0.0848
17,ACTTTGAA,0.0759
18,CTCGTGCA,0.1
19,TGTGCAAA,0.0811
20,ACTTGAAC,0.0734
21,ATTCTCGA,0.0808
22,AATATAGG,0.0788
23,CCGCGAGG,0.0805
24,CAGATCGG,0.0727
25,GGGCCGTA,0.0752

row,Sequence,binding signal (normalized occupancy)
1,AGAGTTGC,0.0698
2,CAGCTTGC,0.0704
3,CCGATCCC,0.0702
4,GCCACCAC,0.0787
5,CAGTGACA,0.0739
6,AGATGTAT,0.0832
7,ACTCGTGC,0.0933
8,ATTGATGG,0.0832
9,AAAGCGGG,0.066
10,GTGTTAAA,0.0743
11,ACCGAAAT,0.0733
12,CACTAACC,0.0743
13,CTGCGCAA,0.0706
14,CGCGAAGA,0.0698
15,GACCTGGA,0.0693
16,CGGCGGGC,0.0663
17,AACCTAAG,0.075
18,TGTGCTAA,0.0728
19,CACTCTCC,0.075
20,CCAGTTTA,0.0753
21,CGTTTGGA,0.0746
22,ACCGGGCT,0.071
23,AATTAGGC,0.0725
24,ACTTGATA,0.0813
25,CAAGTGAA,0.0702

row,Sequence,binding signal (normalized occupancy)
1,AGGGCTAA,0.0698
2,AAGCGGAT,0.0709
3,AACGCATC,0.0731
4,AACAATAA,0.0729
5,CGGTTATA,0.0807
6,TATTCGAA,0.0795
7,AGCGGTGA,0.0677
8,GGCGGGAC,0.0729
9,CTTGATAA,0.0791
10,AGGGAAAG,0.0756
11,AGTCCCCA,0.0807
12,CGCCGCCG,0.0677
13,CCGCTCCA,0.0719
14,CCAACAAG,0.0776
15,GTGAGCTA,0.0825
16,GCCACGGA,0.0706
17,CCATATTA,0.0852
18,ATAGCCTG,0.0748
19,CACGCGCA,0.135
20,ACCTTACG,0.0715
21,CGCATCTA,0.0801
22,TAAAGTGA,0.0797
23,CATATCGC,0.0767
24,AGTGGCAA,0.0713
25,ACGATAAA,0.0783

row,Sequence,binding signal (normalized occupancy)
1,TATATACA,0.0825
2,TAGTTCGA,0.0719
3,GTATTAAC,0.077
4,CACAAGCC,0.0772
5,AAACCGTG,0.0731
6,CCTCTCTA,0.0738
7,CCTGGTAC,0.0716
8,TCATAGCA,0.0811
9,CCAACTCG,0.0708
10,CCATTTCG,0.0676
11,AGAATATC,0.0765
12,AATTTTAT,0.0731
13,AATGCACA,0.0785
14,ACTCTGTC,0.0717
15,GCGGCCCA,0.0704
16,ATGACCCG,0.081
17,TGAAATCA,0.0708
18,CTAGAGAC,0.0745
19,CAGCTGTA,0.0716
20,GCTCAGCA,0.0748
21,CTCGGACC,0.0663
22,AGAACTTA,0.0682
23,AGTTGTTA,0.0725
24,ATTTACTA,0.0719
25,AATACAGT,0.077

row,Sequence,binding signal (normalized occupancy)
1,AAGACTAG,0.0711
2,CGATAAAA,0.0743
3,AGCGGCAT,0.0766
4,ACCATTCT,0.0753
5,GACCCATA,0.0822
6,AAAGGAGG,0.0697
7,AAGAAATA,0.0748
8,GCTGGCCC,0.0684
9,GAAACGTA,0.0744
10,GGGGGGTA,0.0894
11,GTGCCAAC,0.0765
12,AGCGCAGG,0.0685
13,ATGAGGGG,0.0902
14,GAATGGTA,0.08
15,ACTTATAG,0.0808
16,GCCTTTAC,0.0804
17,GCTGTCAA,0.0731
18,AGGATCTG,0.0765
19,CTCCGGGC,0.0682
